# Test results: paper PMC4336329 (PLoS ONE, 2015)
# The campaign covered roughly 310,000 compounds. About 2,200 (0.71%) showed an effect of 50% or more. The effect is printed as a negative number. The list shows a part of the results.
# Target: human ether-à-go-go-related gene (hERG) potassium channel (human, UniProt Q12809)
# Assay: primary screen, population patch clamp on CHO cells stably expressing hERG
# human ether-à-go-go-related gene (hERG) potassium channel, sequence (Q12809 whole entry, looked up): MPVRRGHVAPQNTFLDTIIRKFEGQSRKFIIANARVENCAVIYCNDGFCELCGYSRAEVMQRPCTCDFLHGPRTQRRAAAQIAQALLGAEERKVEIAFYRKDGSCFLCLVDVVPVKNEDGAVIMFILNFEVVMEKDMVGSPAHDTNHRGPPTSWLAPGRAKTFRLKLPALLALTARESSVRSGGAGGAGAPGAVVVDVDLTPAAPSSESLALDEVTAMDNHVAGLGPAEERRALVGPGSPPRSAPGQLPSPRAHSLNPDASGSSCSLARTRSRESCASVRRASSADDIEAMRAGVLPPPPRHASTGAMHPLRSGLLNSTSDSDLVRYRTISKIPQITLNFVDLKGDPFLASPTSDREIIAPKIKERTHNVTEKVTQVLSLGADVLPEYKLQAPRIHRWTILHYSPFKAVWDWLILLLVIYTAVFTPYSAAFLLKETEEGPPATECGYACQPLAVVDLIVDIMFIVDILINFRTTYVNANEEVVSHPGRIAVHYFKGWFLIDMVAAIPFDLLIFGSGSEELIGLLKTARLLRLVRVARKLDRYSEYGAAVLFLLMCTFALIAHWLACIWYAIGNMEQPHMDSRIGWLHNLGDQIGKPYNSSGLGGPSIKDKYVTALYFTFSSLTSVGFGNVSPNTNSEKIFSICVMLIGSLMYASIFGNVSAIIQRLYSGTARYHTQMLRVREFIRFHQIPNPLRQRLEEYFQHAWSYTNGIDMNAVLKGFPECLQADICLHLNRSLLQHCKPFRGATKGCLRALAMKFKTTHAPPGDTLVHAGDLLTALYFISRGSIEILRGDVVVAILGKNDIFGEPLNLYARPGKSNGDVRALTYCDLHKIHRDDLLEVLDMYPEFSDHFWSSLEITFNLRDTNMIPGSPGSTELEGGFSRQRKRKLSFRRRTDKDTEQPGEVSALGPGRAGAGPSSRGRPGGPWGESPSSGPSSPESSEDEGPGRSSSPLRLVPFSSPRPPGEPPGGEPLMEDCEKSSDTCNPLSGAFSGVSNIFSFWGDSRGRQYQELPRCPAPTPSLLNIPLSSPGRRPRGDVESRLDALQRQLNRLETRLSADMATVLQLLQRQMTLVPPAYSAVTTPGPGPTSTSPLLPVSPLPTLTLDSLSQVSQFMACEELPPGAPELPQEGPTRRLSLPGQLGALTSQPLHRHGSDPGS
row,SMILES,"hERG current change (%, negative = inhibition) at 1uM [%]"
1,Cc1ccc(SCc2noc(C(=O)NC(C)C)c2C(=O)O)cc1C,14
2,COc1ccc(CCN2CCCn3c2nc2c3c(=O)n(CC(C)C)c(=O)n2C)cc1OC,2.4
3,COc1cc(C(=O)NCC2(c3ccccc3)CCCC2)ccc1OC(C)C,9.95
4,CCOC(=O)C(NC(=O)Nc1ccc(Cl)cn1)(Oc1ccccc1)C(F)(F)F (centres unmarked),4.85
5,Cc1cccc(OCC(=O)Nc2nc3ccc([N+](=O)[O-])cc3s2)c1C,15.6
6,CN(Cc1ccccc1F)C(=O)CNC(=O)Cc1cccc2ccccc12,8.46
7,O=C(NCCNS(=O)(=O)c1ccc(Cl)cc1)c1cc(OCC(F)(F)F)ccc1OCC(F)(F)F,11.7
8,Cc1ccc(Cl)cc1N(CC(=O)NC(C)c1ccccc1)S(C)(=O)=O (centres unmarked),16.6
9,CN(CCN1CCc2ccccc2C1)Cc1nc(-c2ccc3c(c2)OCO3)no1,-13
10,CC1CC(C)CN(CCCNC(=O)c2cc3c(=O)[nH]c4ccccc4c3n2C)C1 (centres unmarked),15.1
11,Cc1cccc(N(CC(O)CN2CCCC2)S(=O)(=O)c2ccccc2)c1 (centres unmarked),-35.3
12,Cc1ccc(C(=O)CNc2ccc(C)cc2C)cc1,16.1
13,O=C(c1coc(=O)c(Br)c1)N1CCC(C(O)(c2ccccc2)c2ccccc2)CC1,9.97
14,Cc1cccc(NC(=O)CN2C(=O)c3ccccc3S2(=O)=O)n1,17.1
15,CCC(C)(C)NC(=O)C(c1ccccc1)N(Cc1cccs1)C(=O)Cn1nnc2ccccc21 (centres unmarked),11.1
16,O=C(c1cccc([N+](=O)[O-])c1)c1ccc2c(c1)OCCOCCOCCO2,-9.73
17,CCn1c(-c2cccs2)nc2ccccc21,-1.08
18,COc1ccccc1CN=C1NC(=O)C(CC(=O)Nc2ccc(OC)c(OC)c2)S1 (centres unmarked),14.5
19,Cc1ccc(/C=N/NC(=O)Cc2c[nH]c3ccccc23)c(C)c1,12.6
20,O=C(Cc1csc(Nc2nc(=S)[nH]c3ccccc23)n1)NCCCN1CCN(c2ccccc2F)CC1,8.64
21,COc1ccccc1Nc1nc(-c2ccccc2O)nc2ccccc12,12.4
22,COC(=O)CSc1nc(N)c(NC(=O)c2ccc(OC)c(OC)c2)c(=O)[nH]1,20.4

row,SMILES,"hERG current change (%, negative = inhibition) at 1uM [%]"
1,COc1ccc2c(c1)nc(SCC(=O)c1cccs1)n2C,12.3
2,Cc1cc2nc(/C(C#N)=C\c3ccc(-c4ccccc4C(=O)O)o3)[nH]c2cc1C,15.5
3,COc1cc(C(=O)N2CCC(NC(=O)C(Cc3ccccc3C)NC(C)=O)CC2)cc(OC)c1OC (centres unmarked),6.3
4,O=C(Cn1c(=O)oc2ccccc21)Nc1cccc(Cl)c1,3
5,CCNC(=S)N(CCc1c(C)[nH]c2ccc(C)cc12)Cc1cccs1,9.67
6,CCn1cc(CN2CCCC(C(=O)c3cccc(OC)c3)C2)c(C)n1 (centres unmarked),0.377
7,CCCCOc1cccc(C(=O)Nc2ccc(S(=O)(=O)Nc3cc(C)on3)cc2)c1,6.16
8,COc1ccc(N2CCN(C(CNC(=O)C(=O)NC3CCCC3)c3ccco3)CC2)cc1 (centres unmarked),1.68
9,O=C(NCc1ccccn1)c1ccc2c(=O)n(CCc3ccccc3)c(=O)[nH]c2c1,10.2
10,O=C(NCc1cccs1)c1cc(S(=O)(=O)N2CCOCC2)ccc1N1CCCC1,-12.1
11,Cc1cc(O)c(-c2ccno2)cc1Cl,10.2
12,Cc1c(NC(=O)/C=C/c2cn(-c3ccccc3)nc2-c2ccc(F)cc2)c(=O)n(-c2ccccc2)n1C,14.9
13,CNC(=O)NNC(=O)c1onc(-c2c(Cl)cccc2Cl)c1C(=O)OC,3.79
14,Cn1cccc1CC(=O)N/N=C/c1cccc2ccccc12,5.44
15,COc1cc(NC(=S)N2CCN(c3ccccn3)CC2)cc(OC)c1OC,6.3
16,O=C(Cn1cnc2c(nnn2-c2ccccc2)c1=O)N1CCOCC1,9.34
17,COc1ccc(CCNC(=O)C2CCN(c3ccc(N4CCOCC4)nn3)CC2)c(OC)c1,15.6
18,Cc1ccc(C)c(S(=O)(=O)N2CCN(C(=O)c3ccc(N4CCCC4)c([N+](=O)[O-])c3)CC2)c1,10.8
19,C=CCn1cc(C(=O)c2cc(Br)ccc2O)cc(C#N)c1=O,5.08
20,O=C(COc1ccc(F)cc1)N1CCCc2ccccc21,15.9
21,Cc1ccccc1NC(=O)C1CC(=O)N(c2ccc3c4c(cccc24)CC3)C1 (centres unmarked),7.22
22,CC(Sc1nnc(Cc2cccs2)n1C1CCCCC1)C(=O)NCc1ccco1 (centres unmarked),0.643

row,SMILES,"hERG current change (%, negative = inhibition) at 1uM [%]"
1,C=CCn1c(C)c(C(C)=O)c(N2CCN(C(c3ccccc3)c3ccccc3)CC2)nc1=S,10.3
2,CCOC(=O)C(=O)/C(C#N)=C/Nc1ccc(Cl)cc1,10.5
3,CCOC(=O)C1CCCN(C(c2ccccn2)c2c(C)[nH]c3ccccc23)C1 (centres unmarked),14.3
4,Cc1cc(Cl)ccc1OCC(=O)NC(=S)Nc1ccc(Cl)cn1,11
5,COc1ccc(OCCOC(=O)C(C)NS(=O)(=O)c2ccc(NC(C)=O)cc2)cc1 (centres unmarked),14
6,Cc1c(/C=N/Nc2ccc(C(=O)O)cc2)c2ccccc2n1C,9.56
7,Cc1cc(C)nc(NC(=O)c2ccc(Cl)cc2Cl)n1,2.13
8,Cc1c(Cl)cccc1NC(=O)c1cc(C2CC2)on1,5.83
9,C#CCOCCOCCOCCNc1nc(N2CCN(C(=O)[C@H]([C@@H](C)CC)n3cc([C@@H](N)CO)nn3)CC2)nc(N2CCN(C(=O)[C@H](Cc3ccc(O)cc3)n3cc([C@@H](N)C(C)CC)nn3)CC2)n1.Cl (some centres unmarked),14.5
10,CCCSc1cc(N)cc([N+](=O)[O-])c1,-4.52
11,CN(C)S(=O)(=O)N1CCC(CO)(Cc2cccc(C(F)(F)F)c2)CC1,-1.27
12,CC(=O)N1CSCC1C(=O)NNS(=O)(=O)c1ccccc1 (centres unmarked),9.31
13,CC(Sc1nccn1C)C(=O)NC1(C#N)CCCCC1 (centres unmarked),6.36
14,O=C(CN(Cc1ccco1)C(=O)c1ccc(Cl)cc1)Nc1c(Cl)cc(Cl)cc1Cl,10.8
15,COc1ccccc1NC(=O)NNC(=O)c1ccc2ccccc2c1,18.4
16,O=C(NCCO)c1cc([N+](=O)[O-])cc2c1C=Cc1ccccc1O2,-5.21
17,CC1CCCN(CCOCCOc2ccc(Br)cc2Cl)C1.O=C(O)C(=O)O (centres unmarked),-7.22
18,COc1cccc(/C=N/n2nnnc2N)c1,13.9
19,CCOC(=O)/C=C(\C)Nc1cc(C)nn1-c1ccccc1,12.4
20,CCC(C)[C@@H](C(=O)N1CCNCC1)n1cc(CCCCN)nn1.Cl (some centres unmarked),27.6
21,COc1cc(S(=O)(=O)N2CCN(C(=O)c3ccco3)CC2)ccc1Cl,8.83
22,O=C(O)c1cccc2c1C(=O)c1ccc(N3CCCC3)cc1S2(=O)=O,18.7

row,SMILES,"hERG current change (%, negative = inhibition) at 1uM [%]"
1,COc1ccc(NC(=O)Cn2nc(C(=O)O)c3ccccc3c2=O)cc1Cl,17.2
2,CC1CCc2nn(CC(=O)NCc3ccco3)cc2C1 (centres unmarked),5.91
3,CCn1c(=O)cc(OCC(=O)NCCCN2CC(C)CC(C)C2)c2ccccc21 (centres unmarked),12
4,COCc1c(C(=O)N2CCN(Cc3c(F)cccc3Cl)CC2)oc2ccccc12,11.6
5,CSc1ccccc1NC(=O)CN(C)Cc1cc(=O)n2ccsc2n1,-4.27
6,CS(=O)(=O)c1sc2nc(-c3cccs3)cc(-c3ccccc3)c2c1N,16.5
7,COc1ccc(CN2CSC(=S)N(Cc3ccc(OC)cc3)C2)cc1,13.8
8,COc1cc(C(=O)N2CCN(c3ccccc3OC)CC2)c([N+](=O)[O-])cc1OC,12.5
9,O=C(O)C1=C[C@@H](C2CC2)C[C@@H](OCc2ccc(CO)cc2)O1,9.44
10,COc1ccc(Cc2nnc(SCC(=O)N(c3ccccc3)C(C)C)n(N)c2=O)cc1,6.82
11,CCOC(=O)Nc1ccc(C)cc1NC(=O)OCC,13
12,Oc1cc(NCc2cccnc2)ccc1-c1nc2ccccc2o1,13.2
13,O=C(CSc1nnc(Cc2cccs2)n1CCc1ccccc1)N1CCCc2ccccc21,6.03
14,COc1ccc(C(C)=O)cc1COC(=O)CCNS(=O)(=O)c1ccc(C)cc1,8.45
15,CCN(CC(=O)Nc1ccccc1C(F)(F)F)C(=O)CSCC(=O)Nc1cc(C)on1,15.5
16,COc1ccc2cnn(-c3ccccc3C)c(=O)c2c1OC,17
17,Cc1ccc(C)c(NC(=O)NCc2ccccn2)c1,3.31
18,CCC(C)NC(=O)C1c2ccccc2C(=O)N1Cc1ccc(F)cc1 (centres unmarked),4.36
19,O=C(NCc1ccncc1)C1CCN(S(=O)(=O)c2ccccc2)CC1,-3.63
20,Cc1ccc(C(=O)NNC(=S)NC(=O)c2ccc(Cl)cc2)cc1,10.5
